Assay results taken from article PMC11840927.
One block for each binder: values may come before it.

Experiments:
[1] = target: T1, E. coli cysteine desulfurase IscS with a His-tag (E. coli), P0A6B7; test: native MS; protomer exchange: 1:1 mix of 15N- and 14N-labelled SDAec (or His-tagged and untagged IscS), room temperature, 200 mM ammonium acetate pH 8.5, EMR Orbitrap; ratio of exchanged dimer to the sum of unexchanged dimers; α2β2γ2 (or IscS dimer) to protomers and back; details: remark: other sources report otherwise
T1 chain: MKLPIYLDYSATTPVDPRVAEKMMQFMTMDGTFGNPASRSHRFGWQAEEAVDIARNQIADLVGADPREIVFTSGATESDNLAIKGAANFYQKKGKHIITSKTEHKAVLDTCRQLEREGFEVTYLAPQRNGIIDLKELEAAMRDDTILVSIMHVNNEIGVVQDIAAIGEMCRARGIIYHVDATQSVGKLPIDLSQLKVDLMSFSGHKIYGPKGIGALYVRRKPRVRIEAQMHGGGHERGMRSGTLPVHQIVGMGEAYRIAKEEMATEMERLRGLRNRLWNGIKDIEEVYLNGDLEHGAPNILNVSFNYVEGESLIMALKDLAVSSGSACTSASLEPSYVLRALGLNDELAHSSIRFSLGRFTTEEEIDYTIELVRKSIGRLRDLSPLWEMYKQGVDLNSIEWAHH

[2] = target: T2, E. coli cysteine desulfurase IscS without a His-tag (E. coli), P0A6B7; test: as above; details: remark: other sources report otherwise
T2 chain: T1 chain

exchanged-to-unexchanged ratio at 120 min [1]: 0.31 | stoichiometry N [2]: 2
B1: E. coli cysteine desulfurase IscS without a His-tag, P0A6B7 1-404 (enzyme)
chain: T1 chain
modifications: here or on the partner: PLP cofactor; PLP cofactor

stoichiometry N [1]: 2
B2: E. coli cysteine desulfurase IscS with a His-tag, P0A6B7 1-404 (enzyme)
chain: T1 chain
modifications: here or on the partner: PLP cofactor; PLP cofactor
